Data as given in paper PMC2782911 (Cancer, 2009).

Test system: HDACs in MCF7 cells
Test: HDAC activity in lysates of MCF7 cells cultured with compound
Conditions: SLC5A8 cDNA-transfected MCF7 cells cultured with 1 mM compound

Structure (SMILES)	reduction of the activity of HDACs
O=C(O)C(=O)CBr [3-bromopyruvate]	70-80%
CC(=O)C(=O)O [pyruvate]	70-80%
